Results from the supplement of paper PMC3334620.
Whole data set: some 33,000 sequences, median “E-score (-0.5 to 0.5)” near -0.04, cut for the highest 2% near 0.36. Some of the results follow.

The sequences below were run against T1, Hmlalpha2 (UniProt P0CY09) (assay: PBM E-score (8-mer binding enrichment) (E-score (-0.5 to 0.5)); higher = stronger / more preferred TF binding; most listed sequences are background and not binding sites). Details: protein concentration: 200 nM; construct: GST-full length.
T1 sequence: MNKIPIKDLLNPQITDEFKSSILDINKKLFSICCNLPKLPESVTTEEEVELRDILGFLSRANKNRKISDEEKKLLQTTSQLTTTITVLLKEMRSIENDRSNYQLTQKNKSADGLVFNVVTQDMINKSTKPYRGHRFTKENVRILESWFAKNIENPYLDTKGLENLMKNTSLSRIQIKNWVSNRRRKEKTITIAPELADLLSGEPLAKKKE
Protocol: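 Universal 'all 10-mer' protein binding microarrays (Agilent AMADID 015681) probed with GST-tagged S. cerevisiae TFs (full-length or DBD) made by in vitro transcription/translation (PURExpress), about 100-200 nM. Bound TF was detected with fluorescent anti-GST. Each ungapped 8-mer (which stands for itself and its reverse complement) is scored by the PBM enrichment score (E-score), a modified Wilcoxon-Mann-Whitney statistic from -0.5 to +0.5, computed with the Universal PBM Analysis Suite. Scale: above 0.35 generally sequence-specific binding.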

Point of comparison: CTACAATC, “PBM E-score” value 0.241. Against it:
- ACTGATTC — lower, -0.0255
- AACCTATG — lower, 0.192
- AGCTTAAA — lower, -0.0456
- CGGTAAGC — lower, -0.243
- CCGCAAGC — lower, -0.308
- GTCGCGAC — lower, 0.182
- GGACCTCA — lower, -0.226
- GCTTCAAA — lower, -0.147
- ATGAGGGC — lower, -0.113
- AGAACATC — lower, -0.0378
- ACAAAGGC — lower, 0.102
- AATGTGCG — higher, 0.254
- AACGTGCC — lower, 0.142
- CTAACTTC — lower, 0.105
- AGCTTCTG — lower, -0.211
- GGCACTGA — lower, -0.127
- CAGGGCCC — lower, -0.132
- CGTATTTA — higher, 0.342
- AGGCTACA — lower, 0.0137
- ACTCTCAA — lower, 0.0186
- AAGGTTAG — lower, -0.0235
- CGATCAGC — lower, -0.158
- AGATCCCG — lower, -0.123
- GGCCAGTA — lower, -0.168
- CACCTCTA — lower, 0.0274
- CTGTTAAC — higher, 0.304
- CCTTACCA — lower, -0.0702
- CCAGCACC — lower, -0.32
- ACTTAAAG — lower, -0.0171
- ACCACCCC — lower, -0.312
- AATGTTAT — higher, 0.291
- TAAACAAA — lower, 0.223
- CGGCTTGA — lower, -0.122
- CAACGCCC — lower, 0.00637
- CAATACAG — lower, 0.0335
- ATCGCGTG — lower, 0.192
- CCGACAGG — lower, -0.239
- CGGATATA — lower, 0.116
- CTTTGGAA — lower, 0.0565
- CGCTGCTC — lower, -0.0414
- CCTTAATC — lower, -0.172
- AAATTCGC — lower, 0.0425
- ACAGGAGA — lower, -0.0408
- ACAGGATG — lower, 0.164
- CATCCGAC — lower, 0.0189
- ACTCCCAG — lower, -0.152
- TGGGAGAA — lower, -0.171
- ATCAGCCG — lower, -0.133
- ACATCCGC — lower, 0.198
- AGCCCTAC — lower, -0.0891
- GTGTTGCA — lower, 0.187
- CTATTAAC — higher, 0.32
- CAATAGCG — lower, -0.11
- ATAAGGAA — lower, -0.0657
- GGGATTAA — lower, 0.128
- AGAAATCT — lower, -0.0254
- GACATGCC — lower, 0.212
- GTCATCTA — lower, 0.123
- TTATACAA — higher, 0.319
- ATTGACTG — lower, 0.0173
- ATTTTCGG — lower, -0.114
- CATCTCCA — lower, -0.104
- CCGGGACG — lower, -0.23
- CGCTGTAA — higher, 0.244
- ACGAACAT — lower, 0.22
- ACACATTG — lower, 0.233
- CTTCTGGA — lower, -0.19
- AGAATTCA — lower, -0.0407
- AGGGCCAG — lower, -0.22
- TGCTTCCA — lower, -0.0285
- ACTGCAGT — lower, -0.0817
- ACTCCCAT — lower, 0.068
- GGCCTCCC — lower, -0.455
- GCTTCTGA — lower, -0.144
- GGAACTTA — lower, -0.0598
- AGACATGA — higher, 0.275
- AAGAGCGT — lower, -0.0152
- GCTACGCA — lower, 0.0474
- ATTCACAC — higher, 0.264
- GTGAGCAA — lower, -0.0735
- GCGATGCC — lower, -0.117
- GAGTCAGC — lower, -0.236
- CCTAGGAC — lower, -0.191
- CCCCTCAC — lower, -0.292
- ACAAATCG — lower, -0.0119
- AAGATAGG — lower, -0.196
- AGCATATG — lower, -0.132
- AAGGCCCG — lower, -0.217
- ATTGGGGC — lower, -0.183
- CTTATCGA — lower, 0.0368
- TAAACCCA — lower, 0.0925
- GTCTATAA — lower, 0.0897
- CATGAGGC — lower, -0.166
- ACACTATA — lower, 0.117
- GGTATATA — lower, 0.189
- AGCTCCAT — lower, -0.108
- ATCAACAG — lower, 0.136
- AGATAGAA — lower, -0.166
- ACAGGGAC — lower, -0.0336
- CTCCGTGC — lower, -0.157
- CATGCGAC — lower, 0.0966
- CAAATTTA — lower, 0.212
- GAGCACAA — lower, -0.0331
- ACTCGTCC — lower, -0.0333
- CCGCCGCC — lower, -0.199
- AATTGGAG — lower, -0.163
- GCAAGCAA — lower, 0.0131
- CTTCGAAG — lower, -0.327
- GATCGTGC — lower, 0.0557
- CACCAGAC — lower, -0.0592
- GAAAAGCA — lower, -0.106
- AACGGTAG — lower, -0.0836
- GCACTGGC — lower, -0.209
- ATGCTTAC — lower, -0.0445
- TACATTCA — higher, 0.277
- CCACCGCA — lower, -0.259
- TACAGACA — lower, 0.227
- CCCGCGCA — lower, -0.00907
- TGACGACA — lower, 0.199
- GGTTTTAC — higher, 0.246
- CCTTCCGA — lower, -0.19
- CCCCTACA — lower, 0.112
- ACGCAAAA — lower, 0.145
- AGTTTCAT — lower, 0.0534
- GCAGCATA — lower, -0.228
- ATCCTCAG — lower, -0.00817
- CGCCTCGA — lower, 0.0285
- AACAAAGC — higher, 0.34
- ATCTTGTG — lower, -0.0105
- AAGGAAGT — lower, 0.0223
- CATAACCG — lower, 0.0165
- CCCCGGCC — lower, -0.197
- ACGCGAGG — lower, 0.0423
- AAGCGGTA — lower, 0.0508
- CCTCTATC — lower, -0.0831
- AGTGTCAT — lower, 0.172
- AAGATAAA — higher, 0.288
- CTCATCAG — lower, 0.0334
- GCTTCACC — lower, -0.188
- AGGATTTA — lower, 0.0207
- CAGCGTGA — lower, -0.0105
- AGGACCGA — lower, -0.157
- TCTCCCAA — lower, -0.192
- ATGTTTAG — higher, 0.33
- GACGAAAC — lower, -0.0357
- ACATTCCC — lower, 0.157
- AGTGTGGA — lower, -0.073
- ATACCCAC — lower, -0.0577
- ATTCGACG — lower, -0.00029
- TATTCAAA — lower, 0.209
- AGGTTTGC — lower, 0.0445
- ACTATGGC — lower, 0.0658
- GGTGCGCA — lower, -0.0643
- ACAGATGT — lower, 0.0786
- GCGCGCGA — lower, -0.0185
- AGTCGACT — lower, 0.101
- ACTTGGAG — lower, -0.127
- CTGATGTC — lower, -0.0651
- ACTGAACC — lower, -0.136
- AACGGCGA — lower, 0.00205
- GGGCATCA — lower, -0.287
- GACTGATA — lower, -0.292
- CGGTACAC — lower, 0.152
- AACAAGAC — higher, 0.302
- ACTAACGC — lower, 0.174
- AGCTCCGC — lower, -0.0433
- AGGGGGGA — lower, -0.325
- AATGGTGC — lower, -0.0678
- ATTCTTCA — lower, 0.0824
- TAGTTCCA — lower, 0.135
- CACTGGGA — lower, -0.145
- AATATCTG — lower, -0.118
- GCACTACA — lower, 0.232
- ATCGATTA — higher, 0.267
- CCAATGCC — lower, -0.258
- ACGTATCT — lower, 0.0288
- ATTTAACG — higher, 0.355
- GAAACCGC — lower, 0.0628
- AATGTTGG — lower, 0.137
- AAGGGCCT — lower, -0.136
- CGTAGCCC — lower, -0.0733
- GAGCGTCC — lower, -0.115
- AATGGACG — lower, 0.135
- AGAGTCGC — lower, -0.17
- ACTCCTAG — lower, -0.0148
- ATGACACC — lower, 0.0347
- TCGGAACA — lower, 0.144
- GGGGCTGA — lower, -0.248
- AGCATTCG — lower, -0.151
- GGATCTTA — lower, -0.109
- ATCATAAC — higher, 0.249
- CTAGAAGC — lower, -0.205
- CCAGTAGA — lower, -0.0536
- ACAGATTA — lower, -0.0244
- AGGATGCC — lower, -0.132
- AGTAGAAC — lower, 0.0855
- ACCTTAGA — lower, -0.138
- AGAAGCTG — lower, -0.11
- CGGAGTCA — lower, -0.0965
- AGTATAAC — lower, 0.216
- CAGGGCCG — lower, -0.121
- CAACCCTC — lower, -0.117
- ATTGCTGC — lower, 0.00514
- CCCGGCTA — lower, -0.265
- GGTTAACA — higher, 0.412
- CTATTAAA — lower, 0.0983
- AATTAGTG — lower, 0.232
- CCTGGCAC — lower, -0.168
- GAATCCCA — lower, -0.143
- TCGTTCAA — lower, 0.11
- TATCCCGA — lower, -0.0202
- CAGGTCTC — lower, -0.177
- CGCGCGGC — lower, -0.012
- CAAAAAGC — lower, -0.141
- ATCTTAAC — higher, 0.339
- AACAATTC — lower, 0.117
- AGGTTTAG — lower, -0.124
- ATTGTCCA — lower, -0.0263
